Measurements published in paper PMC4336329 (PLoS ONE, 2015).
The whole screen tested about 310,000 compounds, of which about 14,000 (4.5%) showed an effect of 50% or more. Effects have a minus sign here. Some of the results follow.

target: human ether-à-go-go-related gene (hERG) potassium channel (human, UniProt Q12809); experiment: primary screen, population patch clamp on CHO cells stably expressing hERG
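Note: peak tail current of the secondary pulse compared with the same well before compound.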

human ether-à-go-go-related gene (hERG) potassium channel, sequence (Q12809 whole entry, looked up): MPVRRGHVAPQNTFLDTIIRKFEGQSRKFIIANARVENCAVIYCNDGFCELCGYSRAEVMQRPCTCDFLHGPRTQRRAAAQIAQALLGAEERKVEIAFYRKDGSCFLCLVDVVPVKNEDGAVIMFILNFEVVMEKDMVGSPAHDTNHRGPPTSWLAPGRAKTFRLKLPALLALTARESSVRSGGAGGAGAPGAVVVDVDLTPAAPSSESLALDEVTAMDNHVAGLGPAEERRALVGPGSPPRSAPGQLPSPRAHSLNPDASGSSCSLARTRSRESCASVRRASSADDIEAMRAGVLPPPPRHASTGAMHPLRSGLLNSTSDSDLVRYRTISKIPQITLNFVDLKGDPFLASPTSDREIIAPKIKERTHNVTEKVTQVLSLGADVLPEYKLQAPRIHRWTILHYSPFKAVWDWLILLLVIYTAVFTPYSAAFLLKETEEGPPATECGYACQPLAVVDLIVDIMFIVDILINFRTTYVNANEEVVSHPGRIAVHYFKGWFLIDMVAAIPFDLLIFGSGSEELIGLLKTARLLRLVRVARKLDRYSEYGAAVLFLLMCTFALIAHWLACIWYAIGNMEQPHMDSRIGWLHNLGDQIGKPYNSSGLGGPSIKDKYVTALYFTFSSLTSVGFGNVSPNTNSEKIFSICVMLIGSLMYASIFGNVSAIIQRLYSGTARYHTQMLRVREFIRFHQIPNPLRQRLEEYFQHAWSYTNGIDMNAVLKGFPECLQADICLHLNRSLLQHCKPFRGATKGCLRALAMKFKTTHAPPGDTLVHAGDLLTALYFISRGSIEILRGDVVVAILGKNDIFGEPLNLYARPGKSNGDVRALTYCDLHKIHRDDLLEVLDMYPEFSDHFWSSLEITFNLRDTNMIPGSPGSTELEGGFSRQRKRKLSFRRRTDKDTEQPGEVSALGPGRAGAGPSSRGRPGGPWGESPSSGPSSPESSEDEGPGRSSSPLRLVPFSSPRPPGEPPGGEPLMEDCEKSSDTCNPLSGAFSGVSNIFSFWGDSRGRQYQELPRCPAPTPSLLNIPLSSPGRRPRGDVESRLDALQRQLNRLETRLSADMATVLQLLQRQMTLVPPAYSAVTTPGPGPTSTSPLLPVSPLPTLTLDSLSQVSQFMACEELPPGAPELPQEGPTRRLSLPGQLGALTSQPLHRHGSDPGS

SMILES | hERG current change (%, negative = inhibition) at 10uM
COc1ccc2c(C)cc(SCC(=O)Nc3ncc(Cl)cc3Cl)nc2c1 | -17.5%
CC(NC(=O)CN(c1ccc(Cl)cc1)S(C)(=O)=O)c1ccccc1 (stereo not shown) | 8.32%
Cc1ccc(OCC(=O)O/N=C(\N)c2cccnc2)cc1 | 10.4%
CN(Cc1ccc(F)cc1)C(=O)C(Cc1ccccc1)NC(=O)c1ccccc1 (stereo not shown) | 10.3%
O=C(NCCNc1ccc([N+](=O)[O-])cc1C(F)(F)F)c1ccccc1 | -49.1%
O=C(Nn1cnc2ccccc2c1=O)C1CCCCC1 | -2.26%
CN(C(=O)COC(=O)/C=C/c1cn(-c2ccccc2)nc1-c1ccc2c(c1)OCCO2)C1CCS(=O)(=O)C1 (stereo not shown) | -3.86%
N#Cc1c(N)nc2c(c1N)CC(=O)N2c1ccccc1-c1ccccc1 | -0.581%
COc1cccc(OCCCN2CCCCC2)c1 | -16.2%
Cc1cccc(NC(=O)c2sc3ncn(CC(=O)N4CCN(c5ccccn5)CC4)c(=O)c3c2C)c1 | -61.4%
O=C(CN1C(=O)CSc2ccc(C(F)(F)F)cc21)Nc1ccccc1 | 4.01%
CC(=O)N1CCCN(C(=O)c2cc(COc3c(F)cccc3F)on2)CC1 | 6.58%
CC(=O)N1N=C(c2cccs2)CC1c1ccc(C)o1 (stereo not shown) | 7.07%
CC1CCCN(CCS(=O)(=O)c2ccccc2)C1 (stereo not shown) | 3.59%
C[C@@H]1O[C@@H](O[C@H]2C[C@@H](O)[C@]3(CO)[C@H]4[C@H](O)C[C@]5(C)[C@@H](C6=CC(=O)OC6)CC[C@]5(O)[C@@H]4CC[C@]3(O)C2)[C@H](O)[C@H](O)[C@H]1O.O | 11.1%
O=C(NCCc1ccc(C(F)(F)F)cc1)C1CC(=O)N(Cc2ccccc2)C1 (stereo not shown) | -23.3%
O=C(Nc1ccccc1Cl)c1ccn[nH]1 | 0.778%
COc1ccc(/C=C(/NC(=O)c2ccccc2)C(=O)N2CCCC2)cc1OC | 10.4%
CC(C)NC(=O)NC(=O)COC(=O)c1cccc(S(=O)(=O)N2CCCCC2)c1 | 6.5%
COc1cc(CC(=O)OCC(=O)Nc2ccc3c(c2)OCCO3)cc(OC)c1OC | 26%
Cc1ccc(C(=O)C(C)OC(=O)Cn2cnc3c2c(=O)n(C)c(=O)n3C)cc1 (stereo not shown) | -0.153%
COCc1c(Br)c(C)nc(OCC(=O)N/N=C/c2cc(C)n(-c3ccc([N+](=O)[O-])cc3)c2C)c1C#N | 6.63%

SMILES | hERG current change (%, negative = inhibition) at 10uM
COC(=O)c1ccc2c(=O)n(-c3ccccc3)c(SCN3C(=O)c4ccccc4C3=O)nc2c1 | 11%
COc1ccc(C(C)C)cc1S(=O)(=O)n1ccnc1C | 5.01%
Cc1cc(C)cc(NC(=S)N2CCN(C(=O)c3ccco3)CC2)c1 | -0.347%
Cc1c(NS(=O)(=O)c2ccc3c(c2)c(=O)n(C)c(=O)n3C)c(=O)n(-c2ccccc2)n1C | -4.9%
Cc1ccc(C)c(N2CC(C(=O)OCC(=O)Nc3cc(C)on3)CC2=O)c1 (stereo not shown) | 8.55%
COCCCNC(=O)Cn1cnc2sc(C)c(S(=O)(=O)N3CCN(c4ncccn4)CC3)c2c1=O | 8.44%
COc1ccccc1NC(=O)COC(=O)C1CC1 | 5.22%
OCC1(CCOc2ccccc2)CCN(Cc2cn[nH]c2-c2ccc(F)cc2)CC1 | -71.6%
Cc1cccc(COc2ccccc2C(=O)N(C)CC(=O)Nc2cccc(F)c2)c1 | -4.68%
CCOc1cccc(-c2nnc(SCC(=O)Nc3cc(OC)cc(OC)c3)n2N)c1 | -1.3%
CCOC(=O)/C=C/C(=O)OCC(=O)Nc1ccc([N+](=O)[O-])cc1 | -9.09%
CCOc1ccc(-c2cccc(NS(=O)(=O)c3ccccc3[N+](=O)[O-])c2)nn1 | -3.5%
Cc1ccc(NC(=O)C2C(=O)N(CCO)C3(C)CC2c2ccccc2O3)cc1 (stereo not shown) | -34.3%
CN1CCN(C(=O)c2cnn(-c3ccccc3)c2NC(=O)c2ccccc2F)CC1 | -6.68%
CCCCc1ccc(NC(=O)C2CCN(S(C)(=O)=O)CC2)cc1 | -1.64%
CCCCC(=O)NCc1ccc(F)cc1 | 9.88%
COc1cccc(NC(=O)C(=O)NCC2CCCN2S(=O)(=O)c2ccccc2)c1 (stereo not shown) | -21.2%
COc1cccc(CNCCc2ccc(F)cc2)c1.O=C(O)C(=O)O | -9.82%
CCOc1ccccc1NC(=O)NCc1ccc(F)cc1 | -4.84%
COc1ccc(-c2nnc(SCC3CCCO3)n2C)cc1 (stereo not shown) | 0.931%
O=C(NC1CCCCC1)C(Cc1ccccc1)NS(=O)(=O)c1cccs1 (stereo not shown) | 18.2%
